Assay [1] concerns the target T1, full-length STAT5B^N642H (human, UniProt P51692 1-787, N642H). Nature of the assay: SPR; two-state model. (In general: SPR reads the build-up and loss of mass on a sensor chip optically.)
Assay [2] concerns the target T1, full-length STAT5B^N642H. As to the kind of experiment: SPR; two-state model, kd1.

B1: His-tagged ABL1 kinase (enzyme)
chain: MLEICLKLVGCKSKKGLSSSSSCYLEEALQRPVASDFEPQGLSEAARWNSKENLLAGPSE[in this place about 60 residues]LEKHSWYHGPVSRNAAEYLLSSGINGSFLVRESESSPGQRSISLRYEGRVYHYRINTASDGKLYVSSESRFNTLAELVHHHSTVADGLITTLHYPAPKRNKPTVYGVSPNYDKWEMERTDITMKHKLGGGQYGEVYEGVWKKYSLTVAVKTLKEDTMEVEEFLKEAAVMKEIKHPNLVQLLGVCTREPPFYIITEFMTYGNLLDYLRECNRQEVNAVVLLYMATQISSAMEYLEKKNFIHRDLAARNCLVGENHLVKVADFGLSRLMTGDTYTAHAGAKFPIKWTAPESLAYNKFSIKSDVWAFGVLLWEIATYGMSPYPGIDLSQVYELLEKDYRMERPEGCPEKVYELMRACWQWNPSDRPSFAEIHQAFETMFQESSISDEVEKELGKQGVRGAVSTLLQAPELPTKTRTSRRAAEHRDTTDVPEMPHSKGQGESDPLDHEPAVSPLLPRKERGPPEGGLNEDERLLPKDKKTNLFSALIKKKKKTAPTPPKRSSSFREMDGQPERRGAGEEEGRDISNGALAFTPLDTADPAKSPKPSNGAGVPNGALRESGGSGFRSPHLWKKSSTLTSSRLATGEEEGGGSSSKRFLRSCSASCVPHGAKDTEWRSVTLPRDLQSTGRQFDSSTFGGHKSEKPALPRKRAGENRSDQVTRGTVTPPPRLVKKNEEAADEVFKDIMESSPGSSPPNLTPKPLRRQVTVAPASGLPHKEEAGKGSALGTPAAAEPVTPTSKAGSGAPGGTSKGPAEESRVRRHKHSSESPGRDKGKLSRLKPAPPPPPAASAGKAGGKPSQSPSQEAAGEAVLGAKTKATSLVDAVNSDAAKPSQPGEGLKKPVLPATPKPQSAKPSGTPISPAPVPSTLPSASSALAGDQPSSTAFIPLISTRVSLRKTRQPPERIASGAITKGVVLDSTEALCLAISRNSEQMASHSAVLEAGKNLYTFCVSYVDSIQQMRNKFAFREAINKLENNLRELQICPATAGSGPAATQDFSKLLSSVKEISDIVQR
B1 showed a Kd in assay [1] of 350 nM. Also, the koff in assay [2] worked out at 0.25 s⁻¹.

A word on the Kd: it is the free concentration of one partner at which half of the binding sites on the other are occupied at equilibrium, for simple one-to-one binding. A higher Kd goes with a looser complex. Usually koff stands for the rate constant with which the complex falls apart. A low value points to a long-lived complex.
